# Source: PMC4336329 (PLoS ONE, 2015)
# About 14,000 (4.5%) of roughly 310,000 compounds showed an effect of 50% or more. Effects have a minus sign here. The list shows a part of the results.
# Target: human ether-à-go-go-related gene (hERG) potassium channel (human, UniProt Q12809)
# Experiment: primary screen, population patch clamp on CHO cells stably expressing hERG
# 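Also: peak tail current of the secondary pulse compared with the same well before compound.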
# human ether-à-go-go-related gene (hERG) potassium channel, sequence (Q12809 whole entry, looked up): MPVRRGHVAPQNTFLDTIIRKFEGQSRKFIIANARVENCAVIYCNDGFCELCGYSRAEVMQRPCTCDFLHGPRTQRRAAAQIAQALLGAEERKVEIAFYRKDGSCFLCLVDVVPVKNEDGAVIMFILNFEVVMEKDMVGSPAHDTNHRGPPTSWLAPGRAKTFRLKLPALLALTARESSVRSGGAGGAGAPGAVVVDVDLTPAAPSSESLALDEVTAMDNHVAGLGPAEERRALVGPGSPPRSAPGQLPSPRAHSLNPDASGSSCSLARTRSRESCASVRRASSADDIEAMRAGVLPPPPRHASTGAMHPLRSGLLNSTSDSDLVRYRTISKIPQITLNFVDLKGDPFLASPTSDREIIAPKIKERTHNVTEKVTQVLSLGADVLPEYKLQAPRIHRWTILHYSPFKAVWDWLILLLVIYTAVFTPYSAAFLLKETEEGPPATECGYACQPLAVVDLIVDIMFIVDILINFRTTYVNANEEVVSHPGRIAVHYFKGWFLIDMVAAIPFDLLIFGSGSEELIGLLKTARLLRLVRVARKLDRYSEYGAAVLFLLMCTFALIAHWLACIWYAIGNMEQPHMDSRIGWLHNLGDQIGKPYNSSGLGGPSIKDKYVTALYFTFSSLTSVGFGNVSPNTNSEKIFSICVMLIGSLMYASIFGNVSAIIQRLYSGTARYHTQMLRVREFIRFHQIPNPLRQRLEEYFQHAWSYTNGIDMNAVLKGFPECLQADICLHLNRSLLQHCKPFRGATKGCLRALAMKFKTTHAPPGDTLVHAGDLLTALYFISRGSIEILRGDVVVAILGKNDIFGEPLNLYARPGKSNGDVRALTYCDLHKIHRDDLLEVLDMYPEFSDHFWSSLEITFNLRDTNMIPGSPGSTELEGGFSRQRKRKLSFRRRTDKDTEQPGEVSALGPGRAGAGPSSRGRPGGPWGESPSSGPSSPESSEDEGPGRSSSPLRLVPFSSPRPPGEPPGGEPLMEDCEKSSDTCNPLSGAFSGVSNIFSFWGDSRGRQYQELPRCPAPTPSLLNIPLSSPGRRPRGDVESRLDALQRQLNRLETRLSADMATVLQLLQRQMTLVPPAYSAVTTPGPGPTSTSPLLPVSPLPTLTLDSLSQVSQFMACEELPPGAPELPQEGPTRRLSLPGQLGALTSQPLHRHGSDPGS
row,Structure (SMILES),"hERG current change (%, negative = inhibition) at 10uM [%]"
1,COC(=O)CCCC1=CC2=CC(=O)C(C)(OC(=O)c3cccs3)C(=O)C2=CN1c1ccc(OC)cc1 (centres unmarked),-13.2
2,O=C(CN1C(=O)NC2(CCOc3ccccc32)C1=O)c1ccc(Cl)s1 (centres unmarked),-20.8
3,C/C(=N\Nc1ncc(Br)cn1)c1cccc([N+](=O)[O-])c1,-4.39
4,CCOc1ccc(CNC(=O)c2nnc(CS(=O)(=O)c3ccccc3)o2)cc1OC,7.93
5,Cc1ccc2c(c1)C=CC(C#N)N2C(=O)c1ccccc1 (centres unmarked),16.3
6,O=C(NC1CCS(=O)(=O)C1)/C(=C\c1ccc(F)cc1)NC(=O)c1ccccc1 (centres unmarked),-34.7
7,CN(Cc1ccno1)C(=O)CC1C(=O)NCCN1CC(c1ccccc1)c1ccccc1 (centres unmarked),8.76
8,Cc1ccc(S(=O)(=O)N(CC#N)CC#N)cc1,1.71
9,COc1cccc(S(=O)(=O)NCc2ccc(C(=O)N3CCN(c4ccccc4)CC3)cc2)c1,-14.5
10,COc1ccc(-c2ccc(-c3noc(-c4cccc(OC)c4)n3)c(OC)n2)cc1,8.95
11,CCN(Cc1ccccc1)C(=O)Cn1cc(S(=O)(=O)NC)c(S(=O)(=O)NC)c1,4.06
12,O=C(CCN1C(=O)c2ccccc2S1(=O)=O)Nc1ccc(C(=O)O)cc1,10.4
13,CCCCN(C(=O)c1oc2ccc(OCC)cc2c1C)c1c(N)n(CC(C)C)c(=O)[nH]c1=O,20.7
14,Cc1ccc(N2CN(Cc3ccco3)CNC2=S)cc1,10.9
15,Cn1cnnc1SCC(=O)Nc1cccc(S(=O)(=O)N2CCOCC2)c1,-27
16,COc1ccccc1C(=O)Nc1ccccc1C(=O)NCc1ccco1,-3.93
17,CCOc1ccccc1NC(=S)N1CCCc2ccccc21,-7.67
18,Cc1ccc(CNC(=O)CCCC(=O)O)cc1,3.31
19,CC(=O)Nc1ccc(S(=O)(=O)N2CCN(C(C)CCc3ccccc3)CC2)cc1 (centres unmarked),-38

row,Structure (SMILES),"hERG current change (%, negative = inhibition) at 10uM [%]"
1,O=C(Nc1ccc(Cl)cc1)c1ccc(Br)cc1F,14.4
2,CC1CCN(CCOc2ccc(Cl)c(Cl)c2)CC1,-46.3
3,COc1ccccc1C(=O)NC1CCN(C(=O)Nc2ccc(C)cc2)CC1,5.62
4,CCOc1c2ccc(C(=O)NCc3ccc4c(c3)OCO4)cc2nn1CCOC,0.525
5,OC(CN1CCN(c2cccc(C(F)(F)F)c2)CC1)c1c[nH]c2ccccc12 (centres unmarked),7.32
6,COc1ccc(Cl)cc1NC(=O)CCN1CCOCC1,-4.1
7,Cc1cc(C)cc(N(CCC#N)C(=O)COC(=O)CN2C(=O)NC(C)(C)C2=O)c1,19.6
8,CC(C)(C)C#CCn1c(/C=[N+](\[O-])C2CCCCC2)nc2ccccc21,-25.7
9,COCCn1c(-c2ccc(Cl)cc2)nc2oc3cc(OC)ccc3c(=O)c2c1=O,-20.8
10,COc1ccc(NC(=O)CS(=O)CC(=O)Nc2cc(Cl)ccc2OC)cc1 (centres unmarked),-2.03
11,COc1ccc(S(=O)(=O)N2CCOCC2)cc1Cl,-14.3
12,Cc1cc(C)c(C)c(S(=O)(=O)N2CCC(C(=O)Nc3ccc(S(=O)(=O)N4CCOCC4)cc3)CC2)c1C,15.1
13,COc1cc(C2NC(=S)NC(O)(C(F)(F)F)C2C(=O)c2cccs2)cc(OC)c1O (centres unmarked),27.5
14,CCNC(=O)NC(=O)COC(=O)c1cccc(NS(=O)(=O)/C=C/c2ccccc2)c1,9.96
15,Cc1cccn2cc(CNc3ccccc3)nc12,-4.15
16,O=C1CCCc2cc(S(=O)(=O)N3CCC(C(=O)NCc4ccccc4)CC3)ccc2N1,-0.41
17,O=C(c1cnn(-c2ccccc2)c1)c1ccccc1O,5.04
18,COc1cccc(N=Nc2c(C)[nH]n(-c3ccccc3)c2=O)c1,10.1
19,O=C(NCCN1CCOCC1)c1cc2c(=O)n3ccccc3nc2n1Cc1ccccc1,-5.9

row,Structure (SMILES),"hERG current change (%, negative = inhibition) at 10uM [%]"
1,CCOC(=O)CC(=O)CSc1nnc2c(n1)[nH]c1ccccc12,-28.6
2,Cc1ccc(NCC(=O)N/N=C/c2cccc(Br)c2)cc1,-2.51
3,CC1CCC(NC(=O)c2ccc(NC(=O)c3ccc(=O)[nH]c3)cc2)CC1 (centres unmarked),-1.67
4,COc1ccc(CN2C(=O)C(=O)N(CC(N)=O)C2=O)cc1,27.6
5,Cc1ccc(S(=O)(=O)NCc2ccccc2)cc1C(=O)NC1CCC(C)CC1 (centres unmarked),1.37
6,S=C(N/N=C/c1ccc2ncccc2c1)Nc1ccccc1,63.6
7,O=C(/C=C/c1ccc(Cl)c([N+](=O)[O-])c1)Nc1ccc(N2CCCC2)cc1,3.74
8,CCc1cc2c(-c3ccccc3)cc(=O)oc2cc1OC(=O)c1cccs1,23.3
9,O=C1CCC(=O)N1CCSC(=S)N1CCSCC1,2.09
10,CC(=O)C1=C(Nc2ccc(C)cc2)CC(C)(O)C(C(C)=O)C1c1ccco1 (centres unmarked),0.317
11,CCCC12CN3CCN(CC(C3)/C1=N\NC(=O)c1ccccc1Cl)C2,-9.7
12,O=S(=O)(/C=C/c1ccccc1)N1CCOCC1,7.65
13,Nc1nnc(CCCCCCCCCCc2nnc(N)s2)s1,15.7
14,O=C(NCc1ccc(F)cc1)C1Cc2ccccc2CN1C(=O)c1ccco1 (centres unmarked),-42.1
15,Cc1nn(-c2ccc(F)cc2)c2sc(C(=O)OC3CCOC3=O)cc12 (centres unmarked),5.23
16,NC(=S)N/N=C/c1ccc(-c2cccc([N+](=O)[O-])c2)o1,-12.1
17,CCC(C)[C@H](NC(=O)Nc1ccc2c(c1)OCCO2)C(=O)O (some centres unmarked),-23.9
18,COc1ccc(S(=O)(=O)NN(C)c2ncc(C(F)(F)F)cc2Cl)cc1,-7.18
